The supplement of paper PMC4967469
By IC50 is meant the dose at which the fit gives 50% viability; a limit (>, <) means that the fit lies beyond the doses tested. AUC, from the same fit, is the share of area under the viability curve across the 256-fold dose range; values near 1 show little effect. For some of these results: Any top dose called inferred was derived from the fitted curves, not read from the paper.

Experiments:
Test in all cases: Viability of human cancer cell lines after 72 h of drug (GDSC screen)
HG-6-64-1 = compound: CCN1CCN(Cc2ccc(NC(=O)c3ccc(C)c(/C=C/c4cnc5[nH]ccc5c4OC)c3)cc2C(F)(F)F)CC1 [HG-6-64-1]; conditions: top dose 5.12 µM; top dose inferred
Procedure: (§1)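 Human cancer cell lines in 384-well plates, medium with 10% serum, drug for 72 h over a 256-fold dose range (nine 2-fold or five 4-fold steps up to the top dose). Adherent lines were fixed and stained with the nucleic acid dye Syto60, suspension lines read with resazurin; signal relative to control wells, capped at 0 and 100%. One two-parameter sigmoid per drug and line, fitted in a mixed model over all curves with the slope shared within a line.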

KIN001-244 = compound: O=C(NC(COc1ccc2[nH]c(=O)[nH]c2c1)c1ccccc1)c1cccn(Cc2ccc(F)c(F)c2)c1=O [KIN001-244]; conditions: top dose 20 µM; top dose inferred
Procedure: as §1

I-BET-762 = compound: CCNC(=O)C[C@@H]1N=C(c2ccc(Cl)cc2)c2cc(OC)ccc2-n2c(C)nnc21 [I-BET-762]; conditions: top dose 20 µM; top dose inferred
Procedure: as §1

AV-951 = compound: COc1cc2nccc(Oc3ccc(NC(=O)Nc4cc(C)on4)c(Cl)c3)c2cc1OC [AV-951]; conditions: top dose 0.128 µM; top dose inferred
Procedure: as §1

PF-4708671 = compound: CCc1cncnc1N1CCN(Cc2nc3ccc(C(F)(F)F)cc3[nH]2)CC1 [PF-4708671]; conditions: top dose 10 µM; top dose inferred
Procedure: as §1

CAL-101 = compound: CC[C@H](Nc1ncnc2[nH]cnc12)c1nc2cccc(F)c2c(=O)n1-c1ccccc1 [CAL-101]
Procedure: as §1

Cell Line	AUC (HG-6-64-1)	IC50 (HG-6-64-1) [µM]	AUC (KIN001-244)	IC50 (KIN001-244) [µM]	AUC (I-BET-762)	IC50 (I-BET-762) [µM]	AUC (AV-951)	IC50 (AV-951) [µM]	AUC (PF-4708671)	IC50 (PF-4708671) [µM]	AUC (CAL-101)	IC50 (CAL-101) [µM]
Hs939-T (melanoma, adherent)	0.801	2.77	0.893	> 20	0.983	> 20	0.986	> 0.128	0.986	> 10	–	–
HuCCT1 (biliary tract, adherent)	0.686	1.13	0.835	15.3	0.982	> 20	0.966	> 0.128	0.761	3.93	–	–
HuP-T4 (pancreas, adherent)	0.885	> 5.12	0.917	> 20	0.826	13.1	0.982	> 0.128	0.984	> 10	–	–
IGR-1 (melanoma, adherent)	0.652	0.797	0.842	11.6	0.925	> 20	0.985	> 0.128	0.968	> 10	–	–
IM-95 (stomach, adherent)	0.644	0.822	0.783	9.01	0.858	18.2	0.98	> 0.128	0.943	> 10	–	–
JHU-011 (head and neck, adherent)	0.665	0.913	0.892	> 20	0.896	> 20	0.985	> 0.128	0.969	> 10	–	–
KMRC-1 (kidney, adherent)	0.851	4.29	0.902	> 20	0.931	> 20	0.987	> 0.128	0.952	> 10	–	–
KMS-12-BM (myeloma, suspension)	0.794	1.91	0.863	12.6	0.363	0.562	0.988	> 0.128	0.94	> 10	–	–
KYSE-140 (oesophagus, adherent)	0.606	0.65	0.818	13.3	0.983	> 20	0.977	> 0.128	0.929	> 10	–	–
KYSE-410 (oesophagus, adherent)	0.571	0.509	0.944	> 20	0.939	> 20	0.976	> 0.128	0.979	> 10	–	–
KYSE-520 (oesophagus, adherent)	0.653	0.989	0.896	> 20	0.978	> 20	0.978	> 0.128	0.914	> 10	–	–
LU-65 (large cell lung carcinoma, suspension)	0.942	> 5.12	0.889	> 20	0.927	> 20	0.983	> 0.128	0.927	> 10	–	–
MG-63 (osteosarcoma, adherent)	0.622	0.735	0.98	> 20	0.98	> 20	0.984	> 0.128	0.904	> 10	–	–
MKN1 (stomach, adherent)	0.73	1.5	0.926	> 20	0.885	> 20	0.983	> 0.128	0.979	> 10	–	–
NCI-H2228 (lung adenocarcinoma, adherent)	0.731	2.09	0.886	> 20	0.955	> 20	0.953	> 0.128	–	–	–	–
PFSK-1 (medulloblastoma, adherent)	0.953	> 5.12	0.916	> 20	0.984	> 20	0.985	> 0.128	–	–	–	–

Cell Line	AUC (HG-6-64-1)	IC50 (HG-6-64-1) [µM]	AUC (KIN001-244)	IC50 (KIN001-244) [µM]	AUC (I-BET-762)	IC50 (I-BET-762) [µM]	AUC (AV-951)	IC50 (AV-951) [µM]	AUC (PF-4708671)	IC50 (PF-4708671) [µM]	AUC (CAL-101)	IC50 (CAL-101) [µM]
QGP-1 (pancreas, adherent)	–	–	0.872	> 20	0.689	5.91	0.978	> 0.128	0.979	> 10	–	–
SK-MEL-5 (melanoma, adherent)	–	–	0.914	> 20	0.983	> 20	0.982	> 0.128	0.936	> 10	–	–
SNU-175 (large intestine, suspension)	–	–	0.871	16.8	0.589	2.16	0.981	> 0.128	–	–	–	–
SNU-475 (liver, adherent)	0.953	> 5.12	0.882	17	0.962	> 20	0.972	> 0.128	–	–	–	–
THP-1 (acute myeloid leukaemia, suspension)	0.878	4.31	0.843	12.1	0.85	12.9	–	–	0.935	> 10	–	–
VMRC-RCW (kidney, adherent)	0.767	1.77	0.947	> 20	0.982	> 20	0.989	> 0.128	–	–	–	–
WSU-NHL (lymphoid neoplasm, suspension, top dose 20 µM)	–	–	–	–	–	–	–	–	–	–	0.971	> 20
YAPC (pancreas, adherent, top dose 20 µM)	–	–	–	–	–	–	–	–	–	–	0.975	> 20
YH-13 (glioma, adherent, top dose 20 µM)	–	–	–	–	–	–	–	–	–	–	0.933	> 20
YKG-1 (glioma, adherent, top dose 20 µM)	–	–	–	–	–	–	–	–	–	–	0.962	> 20
YMB-1-E (breast, adherent)	–	–	0.869	> 20	0.937	> 20	0.976	> 0.128	–	–	–	–
YMB-1-E (breast, adherent, top dose 20 µM)	–	–	–	–	–	–	–	–	–	–	0.858	> 20
YT (lymphoid neoplasm, suspension, top dose 20 µM)	–	–	–	–	–	–	–	–	–	–	0.362	0.553
huH-1 (liver, adherent, top dose 20 µM)	–	–	–	–	–	–	–	–	–	–	0.981	> 20
no-10 (glioma, adherent, top dose 20 µM)	–	–	–	–	–	–	–	–	–	–	0.943	> 20
no-11 (glioma, adherent, top dose 20 µM)	–	–	–	–	–	–	–	–	–	–	0.942	> 20
